In the RNAGym collection of RNA variant scans (doi:10.1093/nar/gkz1192):
Read counts are not given, so values of variants with three or more changes are uncertain.

B1: CPEB3 Ribozyme (parent)
chain: UAACAGGGGGCCACAGCAGAAGCGUUCACGUCGCAGCCCCUGUCAGAUUCUGGUGAAUCUGCGAAUUCUGCUGUAUAUCUC

Variants of: B1
Assay: self-cleavage, relative activity (ratio to wild type); higher = more cleavage; in vitro, sequencing
Summary of the method: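 Relative activity compares each variant's cleaved/total read fraction with that of the unmutated ribozyme. To get these fractions, barcoded CPEB3 ribozyme libraries from rounds of error-prone PCR were transcribed with T7 RNA polymerase for 5 hours at 37°C and then given 15 min of DNase I treatment before EDTA was added. The RNAs were reverse transcribed with template switching and sequenced on Illumina, and DNA sequencing linked barcodes to variants. A minimum of 5 reads applied, and three batches were averaged.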

Variant | self-cleavage
U1A A2C A28U U31C A45G | 0.82
U1A A2C G46U U80C | 0.53
U1A A2C U41C A47G | 0.93
U1A A2C U67C | 0.26
U1A A2G A3G U60A G63A | 0.29
U1A A2G A13G C23U | 0.09
U1A A2G A21G C34U U48C | 0.11
U1A A2G C11G A18G U43A C44A U74C | 0.14
U1A A2G C44U U54A | 0.6
U1A A2G C62U | 0.39
U1A A2G G6A A28G A57G | 0.12
U1A A2G G6U A18C U54C A65G | 0.24
U1A A2G G7U C38U A56G U72A | 0.07
U1A A2G G8A A15G G42A U49C | 0.05
U1A A2G G8U A15G A28G U41C | 0.73
U1A A2G U43G U48C U49C | 0
U1A A2G U58C | 0.21
U1A A2U A13U U49C U72C A77U | 0.46
U1A A2U A20G U31A A35U C39U A45G | 0.04
U1A A2U C32A | 0.1
U1A A2U U25A A28G A35G G36A | 0.22
U1A A3C A5C A21C U25C U60C | 0.47
U1A A3C A15G C39U A64G U74C C81U | 0.95
U1A A3C A15U G30A U43C U80C | 0.06

Variant | self-cleavage
U1A A3C A20U A21G C38U U48A U72C | 0.07
U1A A3C U25C U31C A35G U43C C62U | 0.46
U1A A3C U26C | 0.97
U1A A3C U31A U41C A45G U72C | 0.68
U1A A3C U76C | 1.15
U1A A3G A5G C23U U43C U66A | 0.3
U1A A3G A28G | 0.98
U1A A3G A45G U51A G70A U78C | 0.39
U1A A3G A75G | 0.92
U1A A3G C29G U49C G55A U72C U78C | 0.14
U1A A3G G6U U67G | 0.2
U1A A3G G9A A13U A28U | 0.15
U1A A3G U25A U26C G36U U51A U54G | 0.21
U1A A3G U26C U48C U60G | 0.43
U1A A3G U31A U51C U74A U76A A77U | 1.17
U1A A3G U43C U51C U58C U72A A77G | 0.14
U1A A3U A13U A45G A65U | 0.31
U1A A3U A21U U26G U41G A65G | 0.1
U1A A3U A35G A47U A56G U60C U76C | 0.16
U1A A3U A64G U76C | 1.02
U1A A3U C4A C40U A64G | 1.22
U1A A3U C12U A65G | 0.84
U1A A3U G6C A21G U41C | 0.1
U1A A3U U25C U43G U51C | 0.07

Variant | self-cleavage
U1A A3U U60A | 0.65
U1A A5C A18G U54A A65G U78C | 0.22
U1A A5C A28G A64G | 0.63
U1A A5G A13G A56G U72C | 0.84
U1A A5G A15G U66C | 0.41
U1A A5G A18G C27U U51C C59G | 0.17
U1A A5G A18U C59G | 0.27
U1A A5G A28U U41C U54C | 0.5
U1A A5G C17G U54A A64G C71G G73A | 0.11
U1A A5G C27U G61A | 0.3
U1A A5G C29U A35U | 0.24
U1A A5G G9A U49C | 0.18
U1A A5G G30C A57G | 0.1
U1A A5G U31C U41C U72A U78C | 0.18
U1A A5G U43C U60C A64G C68A | 0.06
U1A A5G U48C C71U | 0.27
U1A A5G U60C U69A | 0.18
U1A A5G U74C | 1.02
U1A A5U A13G U31C U49C U72C | 0.31
U1A A5U A13U C17G A21U A64G | 0.12
U1A A5U A18G A20U U31A A56U A57G | 0.1
U1A A5U A20U U26C A64U | 0.22
U1A A5U A45G | 0.58
U1A A5U A65C | 0.37

Variant | self-cleavage
U1A A5U C11G U66C U72A | 0.17
U1A A5U C12U C14U | 1.21
U1A A5U U25C U26C U72C | 0.09
U1A A5U U26C U80C | 0.8
U1A A5U U31C C39A U49A U51C U60C | 0.12
U1A A5U U43A U58C G70A U74C | 0.22
U1A A13C G19C A20U C39A U67G | 0.05
U1A A13G A15C C32A C37A C44A U80C | 0.06
U1A A13G A18G U25A U58C U60A A64U | 0.04
U1A A13G A35C A64G | 0.43
U1A A13G A57G U78A | 0.18
U1A A13G C14G U43C | 0.46
U1A A13G C14U A18G A28U A35U U49C | 0.06
U1A A13G C29U | 0.3
U1A A13G C29U U58A | 0.34
U1A A13G C44A A56U | 0.14
U1A A13G G16A A57G U58C A75G A77G | 0.05
U1A A13G U31C U51G | 0.57
U1A A13G U31C U69A | 0.18
U1A A13G U54C | 0.85
U1A A13G U60C C79U U80C | 0.8
U1A A13U A15G A20G G22A U51A U60A | 0.2
U1A A13U A20G A21G C32U U48C A56U | 0.06
U1A A13U A20G U26C | 0.12

Variant | self-cleavage
U1A A13U A75U | 1.24
U1A A13U G46U U51C A56G U72G | 0.41
U1A A13U U25C | 0.13
U1A A13U U25C A28G A47G A57G | 0.09
U1A A13U U26G G52C | 0.18
U1A A13U U31C A56G A57G A77U | 0.22
U1A A13U U60C A64G G73A U80A | 0.76
U1A A13U U80A | 1.34
U1A A15C C27A A56G U67A | 0.22
U1A A15C G52U U76C U80C | 1.24
U1A A15C U26A U58C | 0.23
U1A A15G A20G U26C U48A A57G U69C | 0.07
U1A A15G A20G U26C U48A U69C | 0.35
U1A A15G A20G U41A A64G | 0.08
U1A A15G A21U U54C A64G | 0.44
U1A A15G A28G U31C U48C A56G | 0
U1A A15G A28G U58A | 0.29
U1A A15G A64U U72A U80A | 0.15
U1A A15G A75G | 0.73
U1A A15G C40U | 0.25
U1A A15G C79U | 1.21
U1A A15G G36C | 0.26
U1A A15G G42U U67C | 0.15
U1A A15G U31C U43A U49C U72C | 0.44

Variant | self-cleavage
U1A A15G U31C U72A | 0.3
U1A A15G U41C U43C A57G U67C U72C | 0.07
U1A A15G U49A A56U | 1.03
U1A A15G U80A | 1.14
U1A A15U A18G U48A A56U | 0.21
U1A A15U A18G U48C A64G C68U U78A | 0.11
U1A A15U A21G C38U C44U G73A | 0.07
U1A A15U A45G A57G | 0.22
U1A A15U A47G U54A U58A | 0.17
U1A A15U A47U U60A | 0.12
U1A A18C A21U A64G U67C U69A | 0.17
U1A A18G A20G A28G U80G | 0.33
U1A A18G A20G A35U C79U | 0.35
U1A A18G A28G U49C | 0.27
U1A A18G A28G U49C A77U | 0.08
U1A A18G A35G C39U U43C U49C U51A | 0.46
U1A A18G A35G U67C U74C | 0.16
U1A A18G A47G U49C | 0.44
U1A A18G C34U U41C U43A U67C | 0.07
U1A A18G U51A U54A U72G U80C | 0.69
U1A A18G U66C U74C U78A | 0.13
U1A A18G U72C | 0.15
U1A A18U A20U A28G C81A | 0.26
U1A A18U A28U U60C U69A | 0.25

Variant | self-cleavage
U1A A18U A45G A65G | 0.17
U1A A18U A45G U54C | 0.12
U1A A18U A56U U74C | 0.5
U1A A18U C39U U48C U49G A75U | 0.2
U1A A18U U41A G46C A65C U66C A77G | 0.04
U1A A18U U41C A45U A77G | 0.18
U1A A18U U49C A56G A64G U78A | 0.1
U1A A18U U78C | 0.59
U1A A20C U25C A45G A56G | 0.34
U1A A20C U26C C40A A64G U72A | 0.12
U1A A20C U41C U67C U72C | 0.25
U1A A20G A28U | 0.62
U1A A20G A28U A35G A56U U67C | 0.73
U1A A20G A35C U54C | 0.46
U1A A20G A35G A57G | 0.82
U1A A20G A35G U48C U49C | 0.2
U1A A20G A45G A57G U80C | 0.24
U1A A20G A47G A65G U67C | 0.15
U1A A20G U31A G42A U66C U67A | 0.11
U1A A20G U31C A45G U69A | 0.13
U1A A20G U49C U72C | 0.21
U1A A20G U51A U54G | 0.24
U1A A20G U54A U66C | 0.16
